The supplement of paper PMC10126150
Sequences with one replicate were seen in a single cluster, so their values are uncertain.

Test system: ATP
Assay: switch fluorescence ratio, 500 uM ATP over buffer (Cy3 cluster intensity, sum of 5 cycles each) (fold (ratio)); higher = stronger signal-on switching upon ATP binding; sequences stand for … in TCGTCGGCAGCGTCAGATGTGTATAAGAGACAGTTTTTTTTTTTTTTTTTTTTTTTTT…TC
Conditions: aptamer strand: ATP DNA aptamer (quencher-CACCTGGGGGAGTATTGCGGAGGAAGG + anchor), 100 nM annealed; ATP concentration: 500 uM; one replicate
Summary of the method: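 After annealing to 100 nM quencher-labelled ATP aptamer, Cy3-labelled switching-strand clusters on a modified Illumina MiSeq flow-cell were imaged in selection buffer. A second image followed after 15 min with 500 uM ATP at 22 °C, and five such buffer/ATP cycles were done, each separated by NaOH stripping and re-annealing. The fluorescence ratio, averaged per switch-domain sequence, is summed target-cycle over summed buffer-cycle Cy3 intensity per cluster, with clusters outside 100-1000 RFU excluded.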
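Note: ATP exposure 15 min at 22 °C before imaging.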

For GGCATTGGTG, the switch fluorescence ratio was 1.03.

With GGACGCTTAG the switch fluorescence ratio was 1.02.

Work on AAGTTCTGCC yielded a switch fluorescence ratio of 1.

AAAGACATGC gave a switch fluorescence ratio of 0.985.

Work on GTGTTAGCAG yielded a switch fluorescence ratio of 1.02.

CTAAGATAAA showed a switch fluorescence ratio of 1.02.

With TTCGCCCTTA the switch fluorescence ratio was 0.953.

Work on AACAGGTAGT yielded a switch fluorescence ratio of 1.01.

ACCTCATGAT gave a switch fluorescence ratio of 1.02.

Sequence AAAGCCCAGG has a switch fluorescence ratio of 0.994.

CTAGTTGTAG gave a switch fluorescence ratio of 0.964.

Sequence CAATAGTTCG has a switch fluorescence ratio of 1.01.

Sequence GTCGAGAAGA has a switch fluorescence ratio of 0.987.

Work on CGTACGGGGG yielded a switch fluorescence ratio of 1.

With TAAAAAGCTT the switch fluorescence ratio was 0.988.

CTGGCTTTCA was tested, and the switch fluorescence ratio was 1.04.

Sequence TGATGTTGGC has a switch fluorescence ratio of 1.26.

In the case of CAATCCCAT, the switch fluorescence ratio is reported as 1.01.

With GACTGCATGC the switch fluorescence ratio was 2.27.

AGCGACATGT showed a switch fluorescence ratio of 1.01.

Work on TACAGGTGGG yielded a switch fluorescence ratio of 1.18.

AGGGACCATC was tested, and the switch fluorescence ratio was 1.05.

Work on CATCCTAGCG yielded a switch fluorescence ratio of 1.09.

Work on GACTTTCGAT yielded a switch fluorescence ratio of 1.05.

GAGTGTATGT showed a switch fluorescence ratio of 0.983.

TTAAAGGCGC was tested, and the switch fluorescence ratio was 1.

Work on TGCGTGCGGA yielded a switch fluorescence ratio of 1.02.

With TGCGGATGTG the switch fluorescence ratio was 0.992.

Work on TAGTGCGATG yielded a switch fluorescence ratio of 0.959.

With AAGTTTAGCC the switch fluorescence ratio was 1.03.

Sequence GGCAGTTCCA has a switch fluorescence ratio of 0.984.

For GGACTCTTTG, the switch fluorescence ratio was 1.03.

Work on ACACTCCGTT yielded a switch fluorescence ratio of 1.01.

With TCTAAAACAC the switch fluorescence ratio was 1.4.

ATCGATGGCT was tested, and the switch fluorescence ratio was 0.977.

Work on AGTAACGTCC yielded a switch fluorescence ratio of 1.01.

For CGGTGTCTTC, the switch fluorescence ratio was 0.98.

TAGGTACTAC showed a switch fluorescence ratio of 1.04.

Work on TCGGGTAAAT yielded a switch fluorescence ratio of 0.964.

GAAGCGCTGG was tested, and the switch fluorescence ratio was 0.984.

For TGGATACAAG, the switch fluorescence ratio was 0.988.

Sequence GGCAAAATTT has a switch fluorescence ratio of 0.988.

Work on AATAGTTTT yielded a switch fluorescence ratio of 0.968.

Work on CCAGGGGAAA yielded a switch fluorescence ratio of 1.02.

GGGTCCATTA was tested, and the switch fluorescence ratio was 1.01.

AAGGTCAGG was tested, and the switch fluorescence ratio was 1.01.

Sequence AACAGCTCGG has a switch fluorescence ratio of 1.02.

Sequence ATCGTCGTCG has a switch fluorescence ratio of 0.994.

Work on ATACTAACTT yielded a switch fluorescence ratio of 1.04.

AAACCGGGG showed a switch fluorescence ratio of 1.09.

GTGAAGTAAG gave a switch fluorescence ratio of 0.979.

For CCCGGTGCTG, the switch fluorescence ratio was 1.04.

TCTCTAAAG was tested, and the switch fluorescence ratio was 1.

In the case of AGACTGGTCT, the switch fluorescence ratio is reported as 0.979.

ATGGTCCCGT gave a switch fluorescence ratio of 1.01.

GTGTGTCAAT gave a switch fluorescence ratio of 1.04.

Sequence TTTGTACTG has a switch fluorescence ratio of 0.951.

In the case of CGAGTCCCGT, the switch fluorescence ratio is reported as 1.01.

With ACACAATTTA the switch fluorescence ratio was 1.06.

With ATCACCTTAA the switch fluorescence ratio was 1.08.

TTCTACCGCA was tested, and the switch fluorescence ratio was 4.51.

With GGAAGTGGAG the switch fluorescence ratio was 0.973.

ATGGCAATCC was tested, and the switch fluorescence ratio was 2.07.

For TGTAGCGTGG, the switch fluorescence ratio was 1.04.

For TCCCTTTGG, the switch fluorescence ratio was 1.54.

GTTTATAGAT showed a switch fluorescence ratio of 0.981.

TTCTAGATTC gave a switch fluorescence ratio of 0.998.

With CTTCGTTTG the switch fluorescence ratio was 0.977.

Work on AGCCTCAAAT yielded a switch fluorescence ratio of 1.05.

With CATCATCGG the switch fluorescence ratio was 1.

Sequence ACATTGACAG has a switch fluorescence ratio of 1.1.

CGTCTGTCAT showed a switch fluorescence ratio of 1.04.

GTCGTGAGTA was tested, and the switch fluorescence ratio was 0.987.

For CCGAAGTTTG, the switch fluorescence ratio was 1.7.

GCGAGAGGCT showed a switch fluorescence ratio of 1.04.

For TCCGTGAGGG, the switch fluorescence ratio was 1.03.

AGACTTCCGT was tested, and the switch fluorescence ratio was 1.09.

ATTGAAAGC showed a switch fluorescence ratio of 0.973.

In the case of AGTTGGGAG, the switch fluorescence ratio is reported as 1.01.

Work on CAGCGCTCT yielded a switch fluorescence ratio of 1.03.

TTGTGATTGA gave a switch fluorescence ratio of 1.04.

Sequence TTCATTAAG has a switch fluorescence ratio of 0.97.

Sequence CGTAACTGT has a switch fluorescence ratio of 1.04.

CCTTTGTCTG showed a switch fluorescence ratio of 0.958.

With GAGAGGAATG the switch fluorescence ratio was 1.01.

In the case of TTGAATTGTC, the switch fluorescence ratio is reported as 0.896.

GGGCGTCCCG showed a switch fluorescence ratio of 0.995.

In the case of TCCCGGCCGC, the switch fluorescence ratio is reported as 1.17.

In the case of TGTCGCTT, the switch fluorescence ratio is reported as 1.07.

In the case of CATCTATTAA, the switch fluorescence ratio is reported as 1.05.

For GCAAGCCTGG, the switch fluorescence ratio was 1.01.

ATTGTGGCAG gave a switch fluorescence ratio of 0.989.

CAAGTGTCAA gave a switch fluorescence ratio of 1.03.

With TTCTAGCTAA the switch fluorescence ratio was 1.03.

In the case of AAAGGGCCGA, the switch fluorescence ratio is reported as 1.01.

With ATAGGTGAAT the switch fluorescence ratio was 0.982.

In the case of ATATCATTCG, the switch fluorescence ratio is reported as 1.

For CAACTGTTAT, the switch fluorescence ratio was 1.09.

Work on GTGTGGCGGA yielded a switch fluorescence ratio of 1.05.

TGCGTGGACT gave a switch fluorescence ratio of 1.26.

With GGCTTAGAG the switch fluorescence ratio was 0.936.

With AAAGCCGTC the switch fluorescence ratio was 1.03.

For CCGGGATT, the switch fluorescence ratio was 1.04.

GGGATAAACG showed a switch fluorescence ratio of 0.947.

Sequence TATAGTCAAT has a switch fluorescence ratio of 1.04.

ACCCTTACC showed a switch fluorescence ratio of 1.38.

Sequence TGGATGAGGA has a switch fluorescence ratio of 0.931.

In the case of TTAATGAGAG, the switch fluorescence ratio is reported as 1.03.

With TCCTTTCACG the switch fluorescence ratio was 1.15.

ACTGAGGGAG was tested, and the switch fluorescence ratio was 1.09.

Work on GGAGAGCTAG yielded a switch fluorescence ratio of 1.02.

For AATAACTGAG, the switch fluorescence ratio was 1.1.

CCGCGGTCGG gave a switch fluorescence ratio of 1.14.

Work on TCACAGAACT yielded a switch fluorescence ratio of 1.11.

Sequence CCATACCGGT has a switch fluorescence ratio of 1.01.

TCCAACCACG was tested, and the switch fluorescence ratio was 1.06.

Sequence CTTTGTTCCC has a switch fluorescence ratio of 1.01.

For CAGCTGGTGG, the switch fluorescence ratio was 0.997.

For ATGCATGGCT, the switch fluorescence ratio was 1.04.

GTGTCTAACG gave a switch fluorescence ratio of 0.955.

Work on TGGTCGGTTA yielded a switch fluorescence ratio of 1.

Work on GCTTCTATAG yielded a switch fluorescence ratio of 1.04.

GGATATGTCC gave a switch fluorescence ratio of 0.992.

Work on TATATGAGTC yielded a switch fluorescence ratio of 0.962.

Work on TAGTGATC yielded a switch fluorescence ratio of 0.922.

Work on GATCTCCCGT yielded a switch fluorescence ratio of 1.03.

Sequence AGTCCCAACC has a switch fluorescence ratio of 0.996.

Work on CAATTGCACG yielded a switch fluorescence ratio of 1.05.

CCAAGTAGTT gave a switch fluorescence ratio of 0.984.

Sequence TGACCCATCA has a switch fluorescence ratio of 1.06.

TACGGCTAA was tested, and the switch fluorescence ratio was 0.974.

CACCCCTGG was tested, and the switch fluorescence ratio was 1.2.

In the case of ACGCGCGTGC, the switch fluorescence ratio is reported as 1.02.

CATTTATACA was tested, and the switch fluorescence ratio was 1.02.

ACTGAGAACC gave a switch fluorescence ratio of 1.04.

Sequence CGTCGAGAGA has a switch fluorescence ratio of 0.972.

Sequence AAGGTACGCA has a switch fluorescence ratio of 1.04.

GTTTGTTGAA showed a switch fluorescence ratio of 0.95.

In the case of AAGCTGGAAG, the switch fluorescence ratio is reported as 0.979.

TTTTTGCGAG was tested, and the switch fluorescence ratio was 1.01.

Work on GAGTGGCTGA yielded a switch fluorescence ratio of 1.01.

With AGGTGAAAAT the switch fluorescence ratio was 0.99.

TTTCTACTTC gave a switch fluorescence ratio of 1.03.

With TGAGCTAGTG the switch fluorescence ratio was 0.985.

AGAGTGTAGA showed a switch fluorescence ratio of 1.03.

Sequence TATCATCTCA has a switch fluorescence ratio of 1.05.

AGGTATATGA gave a switch fluorescence ratio of 1.

For GTATCAGGCA, the switch fluorescence ratio was 1.01.

With CGGGAAAGCT the switch fluorescence ratio was 1.21.

Sequence TTGGCCCTTT has a switch fluorescence ratio of 0.95.

For TCCCGTCTCA, the switch fluorescence ratio was 1.05.

CAACAGGCAG gave a switch fluorescence ratio of 1.01.

For AATGTCCTTT, the switch fluorescence ratio was 0.989.

With CGGATCTCAC the switch fluorescence ratio was 1.03.

In the case of CATAAAAGTT, the switch fluorescence ratio is reported as 1.02.

In the case of TATAAGAGG, the switch fluorescence ratio is reported as 0.982.

TCCCCTGATG showed a switch fluorescence ratio of 1.51.

For GTTGGCTGGA, the switch fluorescence ratio was 1.03.
